Some of the results follow. These are further read-outs of the screen, such as a control signal, another cell line or another target. No call is given for them. Compounds called inactive in the main read-out are mostly missing here.
Assay: qHTS Assay for Lipid Storage Modulators (AID 1519)
Conditions: Drosophila S3 cells, BODIPY lipid droplet/cell ratio, laser cytometry; measured here: cell count channel max response; cells loaded with oleic acid
Outline: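 Cells seeded at 5,000 per well were treated with compounds over a concentration series and loaded with oleic acid (400 uM, as added). Lipid droplet fluorescence (488 nm excitation, 500-530 nm channel) was read by laser-scanning cytometry and normalized to 20 uM Triacsin C.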

| SMILES | max response [%] |
| --- | --- |
| CCCCCCCCCCCC(CC1OC(=O)C1CCCCCC)OC(=O)C(CC(C)C)NC=O (configuration not stated) | 33 |
| O=C(O)CCC(=O)c1ccc(-c2ccccc2)cc1 | 33.1 |
| CC(C[N+](C)(C)C)OC(N)=O (configuration not stated) | 28.9 |
| O=C(O)c1cc(O)c2c(c1)[C@H]([C@H]1c3cc(C(=O)O)cc(O)c3C(=O)c3c(O[C@@H]4OC(CO)C(O)C(O)C4O)cccc31)c1cccc(O[C@@H]3OC(CO)C(O)C(O)C3O)c1C2=O (some centres not stated) | 16.6 |
| COc1cccc(-c2ccc3ncnc(NCc4ccc(OC)cc4OC)c3c2)c1 | 17.9 |
| O=C(c1ccco1)N1CCC2(CCN(Cc3cc(C(F)(F)F)cc(C(F)(F)F)c3)CC2)CC1 | 8.3 |
| c1cc2c3c(c1)c1c(n3CCNC2)CCCC1 | 90.9 |
| OCC1O[C@H](O[C@H]2C(O)C(O)C(O)O[C@@H]2CO)C(O)C(O)C1O (some centres not stated) | 23.9 |
| Cc1c(Nc2ncccc2C(=O)O)cccc1C(F)(F)F | 25.7 |
| Cc1cccc(CNc2cc(-c3ccccc3C)ncn2)c1 | -14.4 |
| CSc1ccc2c(c1)[C@H](N1CCN(C)CC1)Cc1ccccc1S2 | 44.7 |
| C=C(NC(=O)C(=C)NC(=O)c1csc(C2=N[C@@H]3c4csc(n4)[C@@H]4NC(=O)c5csc(n5)[C@@H]([C@](C)(O)[C@H](C)O)NC(=O)[C@@H]5CSC(=N5)/C(=C/C)NC(=O)[C@@H]([C@H](C)O)NC(=O)c5csc(n5)[C@]3(CC2)NC(=O)[C@@H](C)NC(=O)C(=C)NC(=O)[C@@H](C)NC(=O)[C@@H]([C@@H](C)CC)N[C@H]2C=Cc3c([C@H](C)O)cc(nc3[C@@H]2O)C(=O)O[C@H]4C)n1)C(N)=O | 5.71 |

From PubChem BioAssay (NCATS)
